Results as given in the supplement of paper PMC10126150.
Sequences with one replicate were seen in a single cluster, so their values are uncertain.

System: ATP
Assay: switch fluorescence ratio, 500 uM ATP over buffer (Cy3 cluster intensity, sum of 5 cycles each) (fold (ratio)); higher = stronger signal-on switching upon ATP binding; sequences stand for … in TCGTCGGCAGCGTCAGATGTGTATAAGAGACAGTTTTTTTTTTTTTTTTTTTTTTTTT…TC
Conditions: aptamer strand: ATP DNA aptamer (quencher-CACCTGGGGGAGTATTGCGGAGGAAGG + anchor), 100 nM annealed; ATP concentration: 500 uM; one replicate
Outline: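 Cy3-labelled switching-strand clusters on a modified Illumina MiSeq flow-cell were annealed to 100 nM quencher-labelled ATP aptamer, imaged in selection buffer, then imaged after 15 min with 500 uM ATP at 22 °C. Five buffer/ATP cycles ran, with NaOH stripping and re-annealing between them. The fluorescence ratio is summed target-cycle over summed buffer-cycle Cy3 intensity per cluster, averaged per switch-domain sequence. Clusters outside 100-1000 RFU were excluded.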
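Also: ATP exposure 15 min at 22 °C before imaging.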

Sequence	switch fluorescence ratio
AAAAAACGAT	1.01
AAAAACATCA	1.01
AAAAACGGA	0.93
AAAAACTTCA	1.14
AAAAAGAAGG	1.02
AAAAAGAGTG	0.968
AAAAAGGAAA	0.999
AAAAAGGACG	0.945
AAAAATGGTA	1.01
AAAAATTCT	0.987
AAAACAACAC	1.11
AAAACACT	1.04
AAAACATGAT	1.04
AAAACATTCA	1.15
AAAACCAGG	1.2
AAAACCGAAT	1.02
AAAACGAAAC	0.976
AAAACGGGCG	1.06
AAAACGGGGG	1.01
AAAACTAGGT	1.04
AAAACTTCGA	0.951
AAAAGCAGTG	1.03
AAAAGCGGTG	0.979
AAAAGCGTGA	1
AAAAGGGGCC	0.918
AAAAGTAGGC	1.07

Sequence	switch fluorescence ratio
AAAATAAGAC	1.06
AAAATGAGGG	0.978
AAAATGCAAT	1.19
AAAATGCGG	1.01
AAAATTCCTG	1.05
AAAATTGAAT	0.935
AAAATTTCAG	0.979
AAACAATCGG	0.997
AAACAGCGTC	1.08
AAACATAAAA	1.27
AAACATGAGC	0.986
AAACATGCCG	1.06
AAACATTATG	0.949
AAACCCATAG	1.06
AAACCCGAGC	1.1
AAACCCGCGA	3.94
AAACGACAGG	1.04
AAACGAGAAA	0.996
AAACGCCTGT	1.01
AAACGCGAAC	4.3
AAACGCGTCA	0.979
AAACGGCTGC	1.01
AAACGGGTA	1.05
AAACGGTCTC	1.01
AAACGGTTGT	1.1
AAACGTAGGG	1.03

Sequence	switch fluorescence ratio
AAACGTAGTG	1.08
AAACGTTGAC	1.14
AAACGTTGCC	1.04
AAACTAGGG	0.998
AAACTTGC	1.12
AAACTTGTCG	1.02
AAAGAAACAA	0.975
AAAGAAGTTT	0.983
AAAGACAATC	1.09
AAAGACATAG	1
AAAGACTCC	1.33
AAAGAGGACA	1.04
AAAGAGGATG	1
AAAGAGTTCG	0.935
AAAGATTGGG	1.02
AAAGCAACGA	1.08
AAAGCATAAT	0.989
AAAGCATGAA	1.05
AAAGCGACGA	1.22
AAAGCGCTTG	1.03
AAAGCGGGAA	0.998
AAAGCTACAA	1.17
AAAGCTACCT	1.29
AAAGGAAGGA	0.958
AAAGGACAAT	1.03
AAAGGATATT	0.984

Sequence	switch fluorescence ratio
AAAGGATTTT	0.997
AAAGGCGCTA	0.978
AAAGGGACGA	1.06
AAAGGGACT	1.03
AAAGGGATTA	1
AAAGGGTCGT	0.946
AAAGGTATTG	1.04
AAAGGTGAGT	1.09
AAAGGTGCAT	2.38
AAAGTATTCG	0.978
AAAGTGGATG	0.98
AAAGTGGGAC	0.983
AAAGTGGTGC	0.988
AAAGTGTGTG	1.01
AAAGTTACAC	1.13
AAAGTTATCG	0.981
AAAGTTCGCG	0.971
AAATACGAGG	1.04
AAATACGTGG	1
AAATACTGCG	1.04
AAATAGATAT	0.959
AAATAGTTCG	0.974
AAATAGTTGA	1
AAATATACAA	1.13
AAATATGTCT	0.957
AAATATGTGA	0.999

Sequence	switch fluorescence ratio
AAATCAAGGT	1.02
AAATCACAAC	0.984
AAATCACCAG	1.05
AAATCAGAAG	0.989
AAATCCTGTT	1.18
AAATCTCGGC	1.01
AAATCTCTA	1.03
AAATGACCTC	1.03
AAATGGAGAG	1.01
AAATGGGGTG	1.01
AAATGTAACG	1.08
AAATTAACAC	1.04
AAATTGGCGC	0.977
AAATTTATAG	1.02
AAATTTATTG	1.06
AAATTTCTCT	0.986
AAATTTTTTA	1.04
AACAAACCAC	1.1
AACAACGTTC	0.998
AACAACTTGG	1.02
AACAATGTGA	0.966
AACAATTACA	1.04
AACACATTCT	0.998
AACAGGATCT	1.02
AACAGGCCGA	1.02
AACAGGGATG	1.04

Sequence	switch fluorescence ratio
AACAGGGTAT	0.991
AACATCCAGG	1.69
AACATCTTCT	0.992
AACATGGGC	1.03
AACATTCACT	1.06
AACATTTCAT	1.01
AACCAAATGG	0.986
AACCAGGGCA	1.06
AACCATGCCG	1.01
AACCCAAGCA	1.08
AACCCAGCAT	1.18
AACCCATGGG	1.01
AACCCCGGA	1.04
AACCCGGCAT	1.11
AACCCTATA	1.05
AACCGATGTT	1.02
AACCGGAGGT	0.982
AACCGGGATT	1.06
AACCGGGGGA	1.05
AACCGTGTTG	0.986
AACCGTTAGG	0.991
AACCTGCGAT	1.24
AACGAATGTG	1.04
AACGACGTCG	1.01
AACGAGGTG	1.02
AACGATAGTT	0.973

Sequence	switch fluorescence ratio
AACGCAGATT	1.13
AACGCATGCG	0.97
AACGCGAGTT	1.01
AACGCGCCCG	1.07
AACGCGGGC	1.29
AACGCTCATT	1.01
AACGGATACT	1.19
AACGGATATA	1.05
AACGGATCGC	1.03
AACGGCGTCG	1.01
AACGGGACTA	1.14
AACGGGCAAG	0.993
AACGGGGGAC	1.09
AACGGTAGGA	1.02
AACGGTAGTA	1.03
AACGGTCGGA	1
AACGGTGGCG	1.04
AACGGTGGCT	0.944
AACGGTTCGT	1
AACGTAGCG	1.06
AACGTCTGCG	1.01
AACGTGACT	1.33
AACGTTAATA	0.953
AACGTTCACG	1
AACTAAATGG	0.918
AACTAAGGGG	1.01

Sequence	switch fluorescence ratio
AACTAATAT	0.981
AACTACGATT	1.09
AACTACGTTA	1.06
AACTACTACT	1.13
AACTAGCCCG	1.05
AACTAGCTGA	1.03
AACTCCTTAG	1.03
AACTCGCCCC	1.08
AACTCGCGGT	1.01
AACTCGGGAT	1.01
AACTCTACC	1.21
AACTGCCTAA	0.979
AACTGGGAAC	1.03
AACTGGGAAG	1
AACTGGGGTC	0.965
AACTGGGTAT	0.959
AACTGGTACG	1.06
AACTGTATTT	1.08
AACTTAAAGG	1.02
